Patent US20090166224A1
Entries with a single value are a further part of the results.

Biological target: asialotransferrin (human) (UniProt P02787)
Assay: neuraminidase-treated serum on M-LAC column, displacer fraction, extracted ion chromatogram of peptide …
[1] = transferrin peptide SEQ ID NO:3
[2] = transferrin peptide SEQ ID NO:9

UniProt P02787, sequence (P02787 20-698 limits assumed): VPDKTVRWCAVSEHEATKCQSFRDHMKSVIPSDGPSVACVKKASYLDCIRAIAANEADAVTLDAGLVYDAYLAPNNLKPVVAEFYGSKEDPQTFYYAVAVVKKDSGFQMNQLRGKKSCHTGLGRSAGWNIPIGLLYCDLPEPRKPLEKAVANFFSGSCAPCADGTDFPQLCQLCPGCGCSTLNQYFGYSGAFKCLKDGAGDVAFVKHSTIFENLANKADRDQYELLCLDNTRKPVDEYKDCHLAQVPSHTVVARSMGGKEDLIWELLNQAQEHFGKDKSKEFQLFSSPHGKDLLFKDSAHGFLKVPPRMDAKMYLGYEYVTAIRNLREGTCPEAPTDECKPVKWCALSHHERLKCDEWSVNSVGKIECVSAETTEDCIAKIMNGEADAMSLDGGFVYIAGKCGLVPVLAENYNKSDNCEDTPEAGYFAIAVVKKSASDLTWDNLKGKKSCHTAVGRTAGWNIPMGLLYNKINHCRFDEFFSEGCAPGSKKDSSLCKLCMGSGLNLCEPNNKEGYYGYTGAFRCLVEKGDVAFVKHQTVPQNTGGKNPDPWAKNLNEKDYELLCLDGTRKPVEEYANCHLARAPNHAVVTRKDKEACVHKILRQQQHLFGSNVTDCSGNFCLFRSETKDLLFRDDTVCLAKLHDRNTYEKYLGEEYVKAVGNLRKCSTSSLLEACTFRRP

Concanavalin A (Con A), agarose-bound (from UniProt P02866 30-281)
peptide peak area in displacer fraction [1]: 3.5e+07 counts | peptide peak area in displacer fraction [2]: 1.1e+07 counts

wheat germ agglutinin (WGA), agarose-bound (from UniProt P10968 27-197)
peptide peak area in displacer fraction [1]: 1.6e+06 counts | peptide peak area in displacer fraction [2]: 0 counts
